Patent US20240117030A1 (Pfizer, published 2024)
Changes are numbered by the printed parent chain.

Assays:
Test in all cases: cell-based or functional assay
recombinant human IL-4 = target: T1, recombinant human IL-4 (human, UniProt P05112 25-153)
T1 sequence (looked up): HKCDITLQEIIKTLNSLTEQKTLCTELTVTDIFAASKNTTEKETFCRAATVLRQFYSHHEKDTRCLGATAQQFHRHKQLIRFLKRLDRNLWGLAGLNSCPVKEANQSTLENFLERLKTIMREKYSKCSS

recombinant human IL-13 = recombinant human IL-13 (human, UniProt P35225 fragment)
recombinant human IL-12 = target: T2, recombinant human IL-12 (human, UniProt P29459 23-219; P29460 23-328)
T2 sequence (looked up) 1: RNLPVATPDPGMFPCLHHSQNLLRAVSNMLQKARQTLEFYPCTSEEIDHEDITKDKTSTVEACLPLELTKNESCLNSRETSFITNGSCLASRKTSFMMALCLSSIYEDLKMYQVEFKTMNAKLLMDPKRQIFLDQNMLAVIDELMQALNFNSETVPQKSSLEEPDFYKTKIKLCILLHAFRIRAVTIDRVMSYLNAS
T2 sequence (looked up) 2: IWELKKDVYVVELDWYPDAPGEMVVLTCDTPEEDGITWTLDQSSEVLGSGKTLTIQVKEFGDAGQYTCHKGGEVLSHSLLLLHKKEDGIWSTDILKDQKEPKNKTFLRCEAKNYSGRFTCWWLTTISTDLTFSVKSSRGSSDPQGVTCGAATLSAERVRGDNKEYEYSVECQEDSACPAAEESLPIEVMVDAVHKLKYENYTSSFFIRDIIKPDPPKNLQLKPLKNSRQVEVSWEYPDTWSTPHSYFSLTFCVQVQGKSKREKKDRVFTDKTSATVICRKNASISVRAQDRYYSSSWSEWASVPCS

Chain of recombinant human IL-13 (P35225 35-146 limits assumed): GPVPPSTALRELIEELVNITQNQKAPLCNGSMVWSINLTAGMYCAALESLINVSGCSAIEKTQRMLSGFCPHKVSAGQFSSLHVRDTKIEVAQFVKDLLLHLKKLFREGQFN

B1: IL413p40-0043 (other)
heavy: EVTLRESGPALVKPTQTLTLTCTFSGFSLSNFGEGLSWIRQPPGKGLEWLAHIYWDDDKRYNPSLKSRLTISKDTSRNQVVLTMTNMDPVDTATYYCARRETVFYWYFDVWGQGTTVTVSSASTKGPSVFPEAPSSKSTSGGTAALGCLVKDYFPEPVTVSWNSGALTSGVHTFPAVLQSSGLYSLGSVVTVPSSSLGTQTYICNVNHKPSNTKVDKKVEPKSCDKTHTCPPCPAPEAAGAPSVFLFPPKPKDTLMISRTPEVTCVVVDVSHEDPEVKFNWYVDGVEVHNAKTKPREEQYNSTYRVVSVLTVLHQDWLNGKEYKCKVSNKALPAPIEKTISKAKGQPREPQVYTLPPCREEMTKNQVSLSCAVKGFYPSDIAVEWESNGQPENNYKTTPPVLDSDGSFFLVSKLTVDKSRWQQGNVFSCSVMHEALHNHYTQKSLSLSPGK
chain 1: [about 200 residues not written out]GGGGSEVQLVESGGGLVQPGGSLRLSCAASGFTFSSYAMSWVRQAPGKGLEWVASISSGDTTYYPDSVKGRFTISRDNAKNSLYLQMNSLRAEDTAVYYCARNEGYYFGLTLWGQGTLVTVSSASTKGPSVFPKAPSSKSTSGGTAALGCLVKDYFPEPVTVSWNSGALTSGVHTFPAVLQSSGLYSLSSSVTVPSSSLGTQTYICNVNHKPSNTKVDKKVEPKSCDKTHTCPPCPAPEAAGAPSVFLFPPKPKDTLMISRTPEVTCVVVDVSHEDPEVKFNWYVDGVEVHNAKTKPREEQYNSTYRVVSVLTVLHQDWLNGKEYKCKVSNKALPAPIEKTISKAKGQPREPQVCTLPPSREEMTKNQVSLWCLVKGFYPSDIAVEWESNGQPENNYKTTPPVLDSDGSFFLYSKLTVDKSRWQQGNVFSCSVMHEALHNHYTQKSLSLSPGK
light 1: DIQMTQSPSSLSASVGDRVTITCKASQSVDEDGDSYMNWYQQKPGKAPKLLIYAASNLESGVPSRFSGSGSGTDFTLTISSLQPEDFATYYCQQSNEDPPTFGGGTKVEIKRTVAAPSVFIFPPSDEQLKSGTASVSCLLNNFYPREAKVQWKVDNALQSGNSQESVTEQDSKDSTYSLKSTLTLSKADYEKHKVYACEVTHQGLSSPVTKSFNRGEC
light 2: B1 light 1 with Q27E, E31H, D32F, D34W, Y36L, M37V, N38H, A54R, P100W, K180D
chain 2: EVQLVQSGAEVKKPGESLKISCKGSGYSFTTYWLGWVRQMPGKGLDWIGIMSPVDSDIRYSPSFQGQVTMSVDKSITTAYLQWNSLKASDTAMYYCARRRPGQGYFDFWGQGTLVTVSSASTKGPSVFPLAPSSKSTSGGTAALGCLVKDYFPEPVTVSWNSGALTSGVHTFPAVLQSSGLYSLSSVVTVPSSSLGTQTYICNVNHKPSNTKVDKKVEPKSC
IL-4 induced CD23 upregulation (IC50), Tri-Fab-Fc (recombinant human IL-4): 0.0051 nM | IL-13 induced CD23 upregulation (IC50), Tri-Fab-Fc (recombinant human IL-13): 0.0151 nM | IL-12 induced STAT4 phosphorylation (IC50), Tri-Fab-Fc (recombinant human IL-12): 2.61 nM

B2: IL413p40-0044 (other)
heavy: EVQLVESGGGLVQPGGSLRLSCAASGFTFSSYAMSWVRQAPGKGLEWVASISSGDTTYYPDSVKGRFTISRDNAKNSLYLQMNSLRAEDTAVYYCARNEGYYFGLTLWGQGTLVTVSSASTKGPSVFPKAPSSKSTSGGTAALGCLVKDYFPEPVTVSWNSGALTSGVHTFPAVLQSSGLYSLSSSVTVPSSSLGTQTYICNVNHKPSNTKVDKKVEPKSCDKTHTCPPCPAPEAAGAPSVFLFPPKPKDTLMISRTPEVTCVVVDVSHEDPEVKFNWYVDGVEVHNAKTKPREEQYNSTYRVVSVLTVLHQDWLNGKEYKCKVSNKALPAPIEKTISKAKGQPREPQVCTLPPSREEMTKNQVSLWCLVKGFYPSDIAVEWESNGQPENNYKTTPPVLDSDGSFFLYSKLTVDKSRWQQGNVFSCSVMHEALHNHYTQKSLSLSPGK
chain 1: [about 200 residues not written out]GGGGSEVTLRESGPALVKPTQTLTLTCTFSGFSLSNFGEGLSWIRQPPGKGLEWLAHIYWDDDKRYNPSLKSRLTISKDTSRNQVVLTMTNMDPVDTATYYCARRETVFYWYFDVWGQGTTVTVSSASTKGPSVFPEAPSSKSTSGGTAALGCLVKDYFPEPVTVSWNSGALTSGVHTFPAVLQSSGLYSLGSVVTVPSSSLGTQTYICNVNHKPSNTKVDKKVEPKSCDKTHTCPPCPAPEAAGAPSVFLFPPKPKDTLMISRTPEVTCVVVDVSHEDPEVKFNWYVDGVEVHNAKTKPREEQYNSTYRVVSVLTVLHQDWLNGKEYKCKVSNKALPAPIEKTISKAKGQPREPQVYTLPPCREEMTKNQVSLSCAVKGFYPSDIAVEWESNGQPENNYKTTPPVLDSDGSFFLVSKLTVDKSRWQQGNVFSCSVMHEALHNHYTQKSLSLSPGK
light 1: B1 light 1 with Q27E, E31H, D32F, D34W, Y36L, M37V, N38H, A54R, P100W, K180D
light 2: B1 light 1
chain 2: B1 chain 2
IL-4 induced CD23 upregulation (IC50), Tri-Fab-Fc (recombinant human IL-4): 0.00811 nM | IL-13 induced CD23 upregulation (IC50), Tri-Fab-Fc (recombinant human IL-13): 0.00914 nM | IL-12 induced STAT4 phosphorylation (IC50), Tri-Fab-Fc (recombinant human IL-12): 3.03 nM
